The shares of active, inactive and inconclusive entries below differ from those in the screen. A potency beside an inconclusive call is a rough fit, not a confirmed value. Calls of active or inactive are those of the source. Unless noted, calls come from the whole dose curve; as a rule, active = well fitted curve in the direction sought with a large enough effect; inconclusive = small, poorly fitted or top-dose-only effect, or another doubt; inactive = no such curve, though single readings can be large; an effect the other way counts as inactive or inconclusive.
How the values were obtained:
[1] = P-glycoprotein substrates identified in KB-8-5-11 adenocarcinoma cell line, qHTS therapeutic library screen (AID 1346987); note: nearly all actives have a fitted effect of over 65% in size
In short: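 In this qHTS, P-gp-rich KB-8-5-11 cells received library compounds across a concentration range. Viability was quantified by luminescence after 72 h at 37 degree C.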

HEK293 = test: Cytotoxic Profiling of Annotated Libraries Using Quantitative High-Throughput Screening (AID 1296008); conditions: Five cell lines viability, CellTiter-Glo ATP luminescence, 48-72 h; max response: stronger effect = lower value; note: nearly all actives have a fitted effect of over 60% in size
In short: (§1)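 Cytotoxicity was measured as CellTiter-Glo ATP luminescence, read after 10 min at room temperature. Compound treatment of the cells lasted 48 or 72 hr at 37 degrees Celsius in a qHTS format.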

KB-3-1 = test: as above; conditions: Five cell lines viability, CellTiter-Glo ATP luminescence, 48-72 h; max response: stronger effect = lower value
In short: as §1

NIH3T3 = test: as above; conditions: Five cell lines viability, CellTiter-Glo ATP luminescence, 48-72 h; max response: stronger effect = lower value
In short: as §1

Es-2 = test: Primary qHTS to identify gynecologic anti-cancer compounds using libraries of approved drugs and bioactive compounds (AID 1345084); conditions: Gynecologic cancer cell panel viability, ATPlite luminescence, 48 h; series mostly up to 57.5 µM; note: nearly all actives have a fitted effect of over 55% in size
In short: (§2)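 Luminescence from the ATPlite ATP-monitoring reagent indicates viable cell number; lower signal means cytotoxicity. Cells received compound 16 h after seeding and were exposed for 48 h across five concentrations.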

HeLa = test: as above; conditions: Gynecologic cancer cell panel viability, ATPlite luminescence, 48 h; series mostly up to 57.5 µM
In short: as §2

JEG-3 = test: as above; conditions: Gynecologic cancer cell panel viability, ATPlite luminescence, 48 h; series mostly up to 57.5 µM
In short: as §2

PA-1 = test: as above; conditions: Gynecologic cancer cell panel viability, ATPlite luminescence, 48 h; series mostly up to 57.5 µM
In short: as §2

SKOV3 = test: as above; conditions: Gynecologic cancer cell panel viability, ATPlite luminescence, 48 h; series mostly up to 57.5 µM
In short: as §2

Tov-21-G = test: as above; conditions: Gynecologic cancer cell panel viability, ATPlite luminescence, 48 h; activity change, negative = cytotoxicity: at 57.5 µM (top of the series)
In short: as §2

Tov112D = test: as above; conditions: Gynecologic cancer cell panel viability, ATPlite luminescence, 48 h; activity change, negative = cytotoxicity: at 57.5 µM (top of the series)
In short: as §2

[2] = test system: Zika virus NS2B-NS3 protease (unlinked complex); test: Primary screen GU Rhodamine qHTS for Zika virus inhibitors: Unlinked NS2B-NS3 protease assay (AID 1347159); note: nearly all actives have a fitted effect of over 60% in size
In short: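 Buffer 10 mM Tris-HCl pH 8.0, 0.01% Tween 20. Unlinked protease 25 nM; compound preincubation 15 min, RT, protected from light. Substrate Rhod110, 1.5 microM; ~15% conversion in 15 min.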

[3] = Primary qHTS for inhibitors of nuclear receptor binding SET domain protein 2 (NSD2) in an RCH-ACV wild type WT cells (2C) (AID 1645877); conditions: activity change, negative = cell killing: at 44.9 µM (top of the series); note: nearly all actives have a fitted effect of over 70% in size
CAOV3 = test: Primary qHTS to identify gynecologic anti-cancer compounds using libraries of approved drugs and bioactive compounds (AID 1345084); conditions: Gynecologic cancer cell panel viability, ATPlite luminescence, 48 h; series mostly up to 57.5 µM; note: nearly all actives have a fitted effect of over 55% in size
In short: as §2

[4] = target: Cytochrome P450 2D6 (Homo sapiens) (UniProt P10635); test: Cytochrome P450 family 2 subfamily D member 6 (CYP2D6) small molecule antagonists: luciferase biochemical (cell-free) qHTS assay (AID 1645840; active = well fitted curve in the direction sought with a large enough effect in the repeat runs; inconclusive = weak or mixed curves; inactive = no such curve, though single readings can be large; an effect the other way counts as inactive or inconclusive; note: nearly all actives have a fitted effect of over 55% in size)
UniProt P10635, sequence (P10635 whole entry, looked up): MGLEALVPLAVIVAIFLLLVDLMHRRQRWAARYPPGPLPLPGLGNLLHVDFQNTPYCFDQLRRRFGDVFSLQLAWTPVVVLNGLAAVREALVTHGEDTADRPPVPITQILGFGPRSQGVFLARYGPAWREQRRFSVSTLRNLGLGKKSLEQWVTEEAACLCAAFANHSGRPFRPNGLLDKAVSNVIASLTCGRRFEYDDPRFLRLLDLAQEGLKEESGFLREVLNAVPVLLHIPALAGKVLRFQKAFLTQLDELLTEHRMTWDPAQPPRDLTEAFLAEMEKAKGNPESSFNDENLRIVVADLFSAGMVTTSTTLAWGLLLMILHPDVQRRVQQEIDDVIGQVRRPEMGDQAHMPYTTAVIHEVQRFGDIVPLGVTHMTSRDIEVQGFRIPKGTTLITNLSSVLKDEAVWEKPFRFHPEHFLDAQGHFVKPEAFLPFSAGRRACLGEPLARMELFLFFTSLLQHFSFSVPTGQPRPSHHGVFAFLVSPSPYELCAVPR
In short: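 P450-Glo CYP2D6 system: proluciferin substrate converted by enzyme to luciferin, read by luminescence proportional to activity. Enzyme-substrate mix with compound 10 min at room temperature, then NADPH regeneration 1 h before detection reagent.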

CASKI = test: Primary qHTS to identify gynecologic anti-cancer compounds using libraries of approved drugs and bioactive compounds (AID 1345084); conditions: Gynecologic cancer cell panel viability, ATPlite luminescence, 48 h; activity change, negative = cytotoxicity: at 57.5 µM (top of the series); note: nearly all actives have a fitted effect of over 55% in size
In short: as §2

Hek293T = test: as above; conditions: Gynecologic cancer cell panel viability, ATPlite luminescence, 48 h, control line for the selectivity index; series mostly up to 57.5 µM
In short: as §2

[5] = Primary qHTS for inhibitors of nuclear receptor binding SET domain protein 2 (NSD2) in an isogenic RCH-ACV NSD2 p.E1099K mutant (9B) (AID 1645876); note: nearly all actives have a fitted effect of over 70% in size
C33A = test: Primary qHTS to identify gynecologic anti-cancer compounds using libraries of approved drugs and bioactive compounds (AID 1345084); conditions: Gynecologic cancer cell panel viability, ATPlite luminescence, 48 h; series mostly up to 57.5 µM; note: nearly all actives have a fitted effect of over 55% in size
In short: as §2

OV90 = test: as above; conditions: Gynecologic cancer cell panel viability, ATPlite luminescence, 48 h; series mostly up to 57.5 µM
In short: as §2

Measured: Potency
Potency is the fitted concentration of half-maximal effect; tags give direction and shape of the fitted curve.

Cc1nc2ccc(CN(C)c3ccc(C(=O)NC(CCC(=O)O)C(=O)O)s3)cc2c(=O)[nH]1 (stereo not drawn)
inconclusive: [1] 0.0291 µM [inhibitor, full curve] | KB-3-1 = 0.0517 µM [inhibitor, full curve] | Es-2 = 0.316 µM [cytotoxic, full curve] | HeLa 3.55 µM | JEG-3 = 0.158 µM [cytotoxic, full curve] | PA-1 = 0.355 µM [cytotoxic, full curve] | SKOV3 = 10 µM [rising, partial curve, poor fit] | Tov-21-G 0.282 µM [cytotoxic, full curve]
active: HEK293 = 0.0411 µM | NIH3T3 = 0.0651 µM | Tov112D 0.282 µM

OCC(Cc1ccccc1)Nc1nc(Oc2ccc3c(c2)CCC3)nc2c1ncn2Cc1ccc(-c2ccccc2)cc1 (stereo not drawn)
inconclusive: [1] 29.1 µM [inhibitor, single point] | [2] 50.1 µM [inhibitor, partial curve, poor fit] | [3] 16.3 µM [inhibitor, single point] | HEK293 = 29.1 µM [inhibitor, single point] | KB-3-1 = 16.4 µM [inhibitor, single point] | NIH3T3 = 23.1 µM [inhibitor, single point] | CAOV3 = 39.8 µM [cytotoxic, single point] | Es-2 = 39.8 µM [cytotoxic, partial curve, poor fit] | JEG-3 = 28.2 µM [rising, single point] | PA-1 = 39.8 µM [cytotoxic, single point]

N#Cc1ccc(O[C@@H]2c3ccccc3C[C@H]2N2CCC[C@@H](N)C2)c(Cl)c1
inactive: Hek293T | JEG-3
inconclusive: [1] 18.4 µM [inhibitor, single point] | KB-3-1 = 23.1 µM [inhibitor, single point] | NIH3T3 = 25.9 µM [inhibitor, single point] | CAOV3 = 39.8 µM [cytotoxic, single point] | CASKI 39.8 µM [cytotoxic, single point] | Es-2 = 39.8 µM [cytotoxic, single point] | SKOV3 = 39.8 µM [cytotoxic, single point] | Tov-21-G 22.4 µM [cytotoxic, partial curve]
active: [4] 0.169 µM | HEK293 = 20.6 µM

Cc1ccccc1C(=O)Nc1ccc(C(=O)N2CCC[C@@H](O)c3cc(Cl)ccc32)c(C)c1
inconclusive: [1] 14.6 µM [inhibitor, partial curve, poor fit] | [4] 23.9 µM [inhibitor, single point] | [5] 25.8 µM [inhibitor, single point] | [3] 20.5 µM [inhibitor, partial curve] | HEK293 = 29.1 µM [inhibitor, single point] | KB-3-1 = 25.9 µM [inhibitor, single point] | NIH3T3 = 20.6 µM [inhibitor, single point] | SKOV3 = 8.91 µM [cytotoxic, single point]

C/C=C(/COC(=O)/C(C)=C/C)C(=O)OC/C=C/c1ccc(OC)cc1
inconclusive: [1] 16.1 µM [inhibitor, single point] | [5] 20.1 µM [inhibitor, single point] | [3] 16 µM [inhibitor, single point] | HEK293 = 11.4 µM [inhibitor, single point] | KB-3-1 = 14.3 µM [inhibitor, single point] | NIH3T3 = 16.1 µM [inhibitor, single point] | Tov112D 20 µM [cytotoxic, single point]

O=c1ccc2ccc(OCCCCN3CCN(c4cccc5sccc45)CC3)cc2[nH]1
active: HEK293 = 11.6 µM
inconclusive: [1] 18.4 µM [inhibitor, single point] | KB-3-1 = 29.1 µM [inhibitor, single point] | C33A 22.4 µM [cytotoxic, single point] | CAOV3 = 39.8 µM [cytotoxic, single point] | CASKI 25.1 µM [cytotoxic, single point] | Es-2 = 35.5 µM [cytotoxic, single point] | Hek293T 39.8 µM [cytotoxic, single point] | OV90 = 20 µM [cytotoxic, single point] | SKOV3 = 35.5 µM [cytotoxic, single point]

— PubChem BioAssay (NCATS)
